Holding throughout (test): Primary Screen for Target Class Profiling of Small Molecule Inhibitors of Methyltransferases
The target in test [1] is Glycine N-methyltransferase (Homo sapiens) (UniProt Q14749). The following applies: purified enzyme, MTase-Glo SAH luminescence; measured here: GNMT inhibition; at 40 µM; stronger effect = lower value. The procedure, abridged: (§1)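 Each enzyme was reacted with SAM and its substrate, with compounds tested once at 40 uM; SAH formed was read by MTase-Glo luminescence.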
Test [2] concerns the target Guanidinoacetate N-methyltransferase (Homo sapiens) (UniProt Q14353). The following applies: purified enzyme, MTase-Glo SAH luminescence; measured here: GAMT inhibition; at 40 µM; stronger effect = lower value. In short, it runs like this: as §1
Test [3] has as its target Histamine N-methyltransferase (Homo sapiens) (UniProt P50135). Conditions: purified enzyme, MTase-Glo SAH luminescence; measured here: HNMT inhibition; at 40 µM; stronger effect = lower value. In short, it runs like this: as §1
In test [4] the target is Nicotinamide N-methyltransferase (Homo sapiens) (UniProt P40261). Conditions: purified enzyme, MTase-Glo SAH luminescence; measured here: NNMT inhibition; at 40 µM; stronger effect = lower value. In short, it runs like this: as §1
The target of test [5] is Phenylethanolamine N-methyltransferase (Homo sapiens) (UniProt P11086). The following applies: purified enzyme, MTase-Glo SAH luminescence; measured here: PNMT inhibition; at 40 µM; stronger effect = lower value. The procedure, abridged: as §1

Experimental findings from PubChem BioAssay AID1745853 (National Center for Advancing Translational Sciences (NCATS), 2022) are described below.

Some of the results follow. Further columns of the screen follow, without active or inactive calls.
On the % scale 0 is the no-effect control and ±100 the full control effect.

Take `CC1(C(=O)NC2CCCCC2)Cn2c(ccc2-c2ccco2)C(=O)N1Cc1cccc(Cl)c1` (stereo not given): the activity change, negative = inhibition in test [1] is -13.2%; in test [2] it was 0.729%; in test [3], -11.9%; in test [4], -21.9%; in test [5], -9.79%.

For the compound `Cn1c(CN2CCOCC2)nnc1C1CCCN(C(=O)c2cc[nH]c2)C1` (stereo not given), the activity change, negative = inhibition in test [1] is -0.684%; in test [2] it was 0.977%; in test [3], 1.22%; in test [4], -1.6%; in test [5], 2.82%.

`CC(C)NC(=O)N(C1CCOCC1)C1CNC1`: the activity change, negative = inhibition in test [1] is -6.02%; in test [2], -5.57%; in test [3], -1.76%; in test [4] it was -6.6%; in test [5] it was -1.25%.

`COc1ccc(CCNC(=O)C(C)n2ccc3cc(S(=O)(=O)N4CCCC4)ccc32)c(OC)c1` (stereo not given): the activity change, negative = inhibition in test [1] was 2.72%; in test [2], 4.47%; in test [3], -5.58%; in test [4] it was -6.32%; in test [5] it was -1.02%.

`CCOc1ccc(CN2C(=O)c3cc(C(C)(C)C)nn3CC2(C)C(=O)NCc2ccccc2)cc1` (stereo not given): the activity change, negative = inhibition in test [1] worked out at 7.2%; in test [2] it was 0.504%; in test [3], 7.41%; in test [4], 9.12%; in test [5], 0.741%.

On to `CCN1CC2(CCN(Cc3cc4c(cc3OC)OCCCO4)CC2)OC1=O`, for which the activity change, negative = inhibition is -0.997% in test [1]; -2.94% in test [2]; -1.37% in test [3]; -6.35% in test [4]; -4.38% in test [5].

Turning to `COC[C@H]1NC(=O)CC[C@H]1C(=O)NCCCc1ccccc1`, the activity change, negative = inhibition was 1.56% in test [1]; 2.3% in test [2]; -0.941% in test [3]; 1.65% in test [4]; -4.11% in test [5].

Consider `Cc1ccc(F)c(OC2(C(=O)O)CCN(Cc3cccc(C)n3)CC2)c1`, for which the activity change, negative = inhibition in test [1] was -4.82%; in test [2], -6.31%; in test [3] it was -2.97%; in test [4] it was -9.32%; in test [5], -4.71%.

Turning to `CCCN1C(=O)c2cc3c(OC)ccc(OC)c3n2CC1(C)C(=O)NC1CCCCC1C` (stereo not given), the activity change, negative = inhibition in test [1] is -16.5%; in test [2], -1.94%; in test [3], 5.7%; in test [4], -2.02%; in test [5] it was -13.6%.

Regarding `CC1(C(=O)NC2CCCCC2)Cn2c(cc3sccc32)C(=O)N1C1CCCC1` (stereo not given), the activity change, negative = inhibition is 2.81% in test [1]; 5.49% in test [2]; -4.42% in test [3]; 3.73% in test [4]; -0.568% in test [5].

As to `CN1CCN(Cc2ccc(-c3cnc4c(OCc5ccccc5)nccn34)cc2)CC1`, the activity change, negative = inhibition is -12.2% in test [1]; -6.31% in test [2]; -30.3% in test [3]; -18.2% in test [4]; -11.3% in test [5].

Consider `COC(=O)N1CCC(n2ncc3c(N4CCOCC4)nc(-c4ccc(NC(=O)NC5CC5)cc4)nc32)CC1`, for which the activity change, negative = inhibition in test [1] was -15.8%; in test [2], 10.9%; in test [3], -7.9%; in test [4], -14.2%; in test [5], 1.59%.

As to `CCOc1ccc(CN2C(=O)c3cc4occc4n3CC2(C)C(=O)NC2CCCC(C)C2C)cc1` (stereo not given), the activity change, negative = inhibition in test [1] was -5.85%; in test [2] it was 2.41%; in test [3] it was 2.54%; in test [4], -9.63%; in test [5], -3.44%.

As for `COc1ccc2cc3n(c2c1)CC(C)(C(=O)NC1CCCCC1)N(Cc1ccccc1)C3=O` (stereo not given), the activity change, negative = inhibition in test [1] was -0.423%; in test [2], 0%; in test [3] it was 2.14%; in test [4], 0.615%; in test [5] it was 1.28%.

For `COc1cccc2sc(NC(=O)c3ccc4c(c3)OCCN(C3CCC3)C4)nc12`, the activity change, negative = inhibition in test [1] is -21.9%; in test [2], -0.439%; in test [3], -6.58%; in test [4], -2.33%; in test [5] it was 7.08%.

For the compound `COc1ccc(CN2C(=O)c3cc4sccc4n3CC2(C)C(=O)NC2CCCCCC2)cc1` (stereo not given), the activity change, negative = inhibition in test [1] is 0.862%; in test [2], 3.67%; in test [3], 1.1%; in test [4], -9.66%; in test [5], -0.877%.

As for `CCCN1C(=O)c2cc(C(=O)N3CCCCC3)nn2CC1(C)C(=O)NC1CCCC1` (stereo not given), the activity change, negative = inhibition came out at 3.81% in test [1]; 0% in test [2]; 4.68% in test [3]; 5.22% in test [4]; 6.48% in test [5].

With `CN1CCCC(CN(C)C(=O)c2cc(-c3cnn(CCO)c3)nc3ccccc23)C1` (stereo not given), the activity change, negative = inhibition in test [1] was -5.02%; in test [2], -4.29%; in test [3] it was -18.9%; in test [4], -7.14%; in test [5] it was 5.28%.

With `CC(C)(C)C1CCN(C(=O)n2ncc(C(O)(c3ccccc3)c3ccccc3)n2)CC1`, the activity change, negative = inhibition was 2.37% in test [1]; -3.93% in test [2]; 2.9% in test [3]; -28.6% in test [4]; -4.92% in test [5].

As for `CC1(C(=O)NC2CCCCCC2)Cn2c(cc3sccc32)C(=O)N1Cc1ccccn1` (stereo not given), the activity change, negative = inhibition is 1.95% in test [1]; 0% in test [2]; 9.45% in test [3]; -5.79% in test [4]; 4.53% in test [5].

Regarding `Cc1ccc(CN2CCC3OCCN(Cc4ccccc4)C(=O)C3C2)o1` (stereo not given), the activity change, negative = inhibition in test [1] is -6.87%; in test [2], -5%; in test [3] it was -2.79%; in test [4], -14.8%; in test [5] it was -9.77%.

For the compound `O=C(CC[C@H]1NC(=O)c2ccccc2NC1=O)Nc1nc(-c2cccnc2)cs1`, the activity change, negative = inhibition in test [1] is -9.03%; in test [2], -1.33%; in test [3], 0.279%; in test [4], -2.61%; in test [5], -0.111%.

On to `COCCC(=O)N1CC(c2nc(CCOc3cccc(C)c3)no2)C1`, for which the activity change, negative = inhibition is 0.653% in test [1]; -0.435% in test [2]; 1.79% in test [3]; 0.004% in test [4]; -1.34% in test [5].

As for `COc1cc(C)c(C(=O)NC2C(C)OC(OC3CCC(C)C4C3C=C(C)C3/C(C)=C\CC/C(C)=C/C5(C)C=C(C(=O)O)C(C)CC56OC(=O)/C(=C(\O)C34C)C6=O)C(O)C2(C)O)c(O)c1` (stereo not given), the activity change, negative = inhibition in test [1] is 0%; in test [2] it was 6.15%; in test [3], 6.31%; in test [4], -9.9%; in test [5], 2.21%.

Turning to `Cc1ccccc1CN1C(=O)c2ccc(-c3ccco3)n2CC1(C)C(=O)NC1CCCCCC1` (stereo not given), the activity change, negative = inhibition in test [1] is 2.17%; in test [2], 0.392%; in test [3], 3.61%; in test [4] it was 3.85%; in test [5], 1.53%.

In the case of `CCCN1C(=O)c2c(C(=O)Nc3cccc(Cl)c3C)ncn2CC1(C)C(=O)NCc1ccc(C)cc1` (stereo not given), the activity change, negative = inhibition was -1.58% in test [1]; 0% in test [2]; 6.74% in test [3]; 2% in test [4]; 2.65% in test [5].

On to `CN1C(=O)c2cc(NC(=O)c3ccc(Cl)cc3)ccc2N2CCN=C12`, for which the activity change, negative = inhibition in test [1] was -3.53%; in test [2], 4.39%; in test [3], 4.65%; in test [4], 7.15%; in test [5], -1%.

Turning to `Cc1ccc(NC(=O)Cn2nc3n(C(C)C)c(=O)c4ccc(C(=O)NC(C)C)cc4n3c2=O)c(C)c1`, the activity change, negative = inhibition in test [1] turned out to be 7.49%; in test [2], 4.97%; in test [3], 10.6%; in test [4] it was 2.87%; in test [5], 5.58%.

Turning to `CN1CC(=O)N(c2cccnc2)Cc2c1ncnc2N1CCN(c2ncccn2)CC1`, the activity change, negative = inhibition in test [1] is -4.95%; in test [2], -8.68%; in test [3], -6.2%; in test [4] it was -16.3%; in test [5], -6.47%.

On to `CCOc1ccccc1CNC(=O)c1cc2n(n1)CC(C)(C(=O)NCc1ccc(F)cc1)N(C)C2=O` (stereo not given), for which the activity change, negative = inhibition was -2.55% in test [1]; 0% in test [2]; -5.18% in test [3]; -6.33% in test [4]; -6.42% in test [5].
